# Measured values reported in the supplement of paper PMC3656093.
# ± gives the standard deviation of the averaged measurements. The full ranking holds about 1,900 compounds; the median of “CD40L-induced NF-kB luciferase activity, plate-corrected, relative to DMSO (0) and IKK inhibitor VII (-100) controls” is about 0.032, and the lowest 2% start at about -26. The list shows a part of the results.
# Tested on: BL2-NFkB-Luc
# Assay: CD40L-induced NF-kB luciferase activity, plate-corrected, relative to DMSO (0) and IKK inhibitor VII (-100) controls (% normalized activity); higher = more NF-kB reporter activity (less inhibition)
# Conditions: 9.4 µM; stimulus: tCD40L 64 ng/ml; 4.5 h
# Procedure: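 BL2 B cells with a stable NF-kB response-element luciferase reporter (BL2-NFkB-Luc), 384-well. Cells were pre-incubated with compound at 9.4 uM for 1 h at 37 C, then stimulated with 64 ng/ml trimerized CD40L for 4.5 h; luciferase was read with Steady-Glo. Signal was normalised per plate in Genedata (median DMSO neutral control = 0, median IKK inhibitor VII at 50 uM = -100) with Assay Median plate-pattern correction; duplicate plates.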
row,Structure (SMILES),CD40L-induced NF-kB luciferase activity
1,COc1ccc(/C=C2\CCc3ccccc3C2=O)c(OC)c1OC,9.96 ± 2.8
2,COc1ccc(CCNC(=O)CC(c2ccccc2)c2cccc(C)c2O)cc1OC (centres undefined),-6.91 ± 1.1
3,CC#C[C@]1(O)CC[C@H]2[C@@H]3CCC4=CC(=O)CCC4=C3[C@@H](c3ccc(N(C)C)cc3)C[C@@]21C,-7.39 ± 1.2
4,CC(=O)OCC(=O)C1=CCC2C3CCC4=CC(=O)C=CC4(C)C3(F)C(OC(C)=O)CC12C (centres undefined),-4.87 ± 4.6
5,COc1ccc(Cl)cc1C(=O)NCCc1ccc(S(=O)(=O)NC(=O)NC2CCCCC2)cc1,-7.56 ± 16
6,COc1cc(CNCCc2c[nH]c3ccccc23)cc(Cl)c1OCC(N)=O,-2.87 ± 1.6
7,FC(F)(F)c1ccc(-c2noc(CN3CCCN(C4CCCCC4)CC3)n2)cc1,3.08 ± 0.91
8,CC(C)N(C(=O)Cc1ccccc1[N+](=O)[O-])C(C)C,2.77 ± 2.3
9,COc1cc2[nH]c3c(=O)n(CCN4CCOCC4)cnc3c2cc1OC,-2.05 ± 1.9
10,CC(C)Oc1ccc2c(=O)c(-c3ccccc3)coc2c1,0.574 ± 3.5
11,CC(=O)Nc1nnc(S(N)(=O)=O)s1,2.43 ± 5
12,COC(=O)c1ccc(CC(=O)c2ccc(O)cc2O)o1,1.24 ± 0.47
13,O=C(O)c1ccc(N2C(=O)/C(=C\c3ccccc3)N=C2c2ccccc2)cc1,0.856 ± 0.066
14,CC(/C=C1\SC(=O)N(CCCC(=O)O)C1=O)=C\c1ccccc1,-84.08 ± 0.44
15,COc1ccc(C2OC(=O)Cc3cc(OC)c(OC)cc32)cc1 (centres undefined),4.33 ± 0.061
16,Cc1ccc(C(=O)Nc2ccc(O)cc2C(=O)O)cc1C,-0.921 ± 1.3
17,CCc1c(C)c2ccc(OCC(=O)OC(C)C)c(C)c2oc1=O,7.79 ± 0.47
18,COc1ccc(C(=O)[C@H]2[C@H]3C(=O)N(c4ccccc4)C(=O)[C@H]3C3C=CC=NN32)cc1 (some centres undefined),-1.84 ± 0.34
19,CC(C)[C@H](NC(=O)[C@@H]1CSCN1C(=O)OC(C)(C)C)C(=O)NCC1CCC(C(=O)O)CC1 (some centres undefined),0.649 ± 2.5
20,Cc1ccc2c(c1)c1c3n2CCCN(Cc2ccccc2)C3CCC1 (centres undefined),1.88 ± 0.99
21,Cc1ccc2[nH]c3c(=O)n(CCCN4CCN(C)CC4)cnc3c2c1,5.32 ± 0.32
22,C[C@@H]1CCC[C@H](C)N1NC(=O)c1ccc(Cl)c(S(N)(=O)=O)c1,-0.334 ± 4

row,Structure (SMILES),CD40L-induced NF-kB luciferase activity
1,CC(C)C(CCN1C(=O)CCC1=O)C1CCOC(C)(C)C1 (centres undefined),-1.38 ± 6.7
2,COCC(C)NC(=O)c1ccc(CN2CCc3ccccc3C2)cc1 (centres undefined),7.18 ± 5
3,CC1(C)c2ccccc2N2CC(=O)N(CC(N)=O)C21C (centres undefined),1.75 ± 1.9
4,COC(=O)c1ccccc1OCCOCCOc1cccc2ccc(C)nc12,-1.72 ± 4.2
5,O=C(CCCN1C(=O)/C(=C\c2cccc(Br)c2)SC1=S)Nc1cccnc1,-2.47 ± 4.1
6,C[N+](C)(C)CCCC(=O)c1ccc2c(c1)OCO2,3.1 ± 5.4
7,OC[C@@H](O)[C@@H](O[C@H]1O[C@H](CO)[C@@H](O)[C@H](O)[C@H]1O)[C@H](O)[C@@H](O)CO,-3.32 ± 1.9
8,CCN(CC)CCNC(=O)c1ccc(N)cc1,-3.57 ± 7
9,COc1cc2cc(C)nc(Cc3cccc4ccccc34)c2cc1OC,-4.08 ± 6
10,CC(=O)C1=C(O)C(=O)N(Cc2cccnc2)C1c1ccc(C(C)C)cc1 (centres undefined),1.11 ± 2.3
11,COc1ccc(S(=O)(=O)N2CCN(C(=O)COc3ccc4c(C)cc(=O)oc4c3)CC2)cc1,-2.3 ± 9.4
12,CCOC(=O)Nc1c[n+](N2CCOCC2)no1,4.88 ± 2.3
13,COc1cc(/C=C/C(=O)N2CCCC2)cc(OC)c1OC,-14 ± 13
14,CC1(C)CC(C(CC(=O)N2CCCC2)Cc2ccccc2)CCO1 (centres undefined),3.46 ± 2.7
15,O=C(O)C1CCN(C(=O)COc2ccc3c4c(c(=O)oc3c2)CCC4)CC1,-3.71 ± 1.6
16,O=C(NCC1CCCO1)c1ccc(OC2CCN(C(=O)C3CC3)CC2)cc1 (centres undefined),-0.827 ± 3.7
17,OC(COCc1ccccc1)CN1CCN(Cc2ccc3c(c2)OCO3)CC1 (centres undefined),-0.97 ± 0.41
18,Cc1cc(-c2nn(-c3ccccc3F)cc2CN2CCC(O)CC2)c(C)s1,1.72 ± 3.1
19,Cc1ccccc1NC(=O)C1(C)Cc2ccccc2C(=O)O1 (centres undefined),1.79 ± 2.3
20,CC[C@H](CO)NCCN[C@H](CC)CO,-4.19 ± 3
21,CCOC(=O)[C@H]1O[C@@H]1C(=O)N[C@@H](CC(C)C)C(=O)NCCC(C)C,-4.46 ± 4.7
22,CC(C)NCC(O)COc1ccc(CC(N)=O)cc1 (centres undefined),0.531 ± 1

row,Structure (SMILES),CD40L-induced NF-kB luciferase activity
1,CC1=NS(=O)(=O)c2cc(Cl)ccc2N1,0.932 ± 0.17
2,CC(=O)NC1C(OCc2ccccc2)OC(COC(C)=O)C(OC(C)=O)C1OC(C)=O (centres undefined),-0.365 ± 4.4
3,CN(C)CCC(c1ccc(Br)cc1)c1ccccn1 (centres undefined),-6.17 ± 4.6
4,c1ccc(-c2ccc(C(c3ccccc3)n3ccnc3)cc2)cc1 (centres undefined),-0.306 ± 6.1
5,COc1ccc(C2NCCC3(O)CCCCC23)c(OC)c1OC (centres undefined),-0.584 ± 2.8
6,C[C@]12CCC(=O)C=C1CC[C@@H]1[C@@H]2CC[C@@]2(C)[C@H]1CC[C@]2(O)C(=O)CO,-8.87 ± 3.8
7,Cc1oc2ccc(OC(=O)c3cccs3)cc2c1C(=O)OC(C)C,6.48 ± 1
8,CCOc1ccc(NC(=O)N[C@@H](CCSC)C(=O)OC)cc1,3.53 ± 5.2
9,O=C(CSCc1ccccc1)NCCCN1CCOCC1,-1.22 ± 0.0028
10,CCC1(c2ccccc2)C(=O)NCNC1=O,2.15 ± 9.9
11,COc1ccc(C2C(C#N)=C(N)Oc3cc(C)[nH]c(=O)c32)c(OC)c1OC (centres undefined),4.6 ± 0.22
12,CCC(C(=O)Nc1ccc2c(c1)OCCO2)c1ccccc1 (centres undefined),1.02 ± 2
13,Cc1ccc(CSCC(=O)N2CCCC2)cc1,10.2 ± 1
14,c1ccc2c3c(c(CN4CCCCC4)cc2c1)COC3,-1.11 ± 4.5
15,O=C(OCC1OC2OC3(CCCCC3)OC2C2OC3(CCCCC3)OC12)c1ccccc1 (centres undefined),2.42 ± 3.6
16,Cc1ccc(OCc2nc(-c3cccnc3)no2)cc1C,34.5 ± 7.5
17,Nc1cnn(C2OC(CO)C(O)C2O)c(=O)n1 (centres undefined),6.46 ± 4.2
18,Cc1nc(N)sc1C(=O)NN=Cc1ccco1,2.45 ± 1.3
19,Clc1ccc2c(c1)CCc1cccnc1C2=C1CCNCC1,-1.74 ± 4.4
20,COc1ccc(CCN2C(=O)CSC2c2ccc(OC)c(OC)c2)cc1OC (centres undefined),-4.37 ± 4.7
21,CC12CN3CC(C)(CN(C1)C3c1ccc([N+](=O)[O-])o1)C2 (centres undefined),3.42 ± 1.1
22,O=C1c2ccccc2N2C(=O)c3ccccc3C2N1Cc1ccco1 (centres undefined),-3.98 ± 15

row,Structure (SMILES),CD40L-induced NF-kB luciferase activity
1,CCc1c(C(C)=O)oc2ccc3c(C)cc(=O)oc3c12,92.1 ± 14
2,CC1(C)CC(NCc2ccccc2)CCO1 (centres undefined),0.252 ± 2.9
3,CCN(CC)C(=O)c1ccc(O)c(OC)c1,0.679 ± 1.2
4,COc1ccc(-c2nc3c(=O)n(C)c(=O)[nH]c3n2CCc2ccccc2)cc1,1.44 ± 3.9
5,O=C(/C=C/c1ccc(Cl)cc1)NCCc1ccccc1,31.1 ± 4.1
6,COc1ccccc1NC(=O)Cn1c(C)cc(=O)c2cccc(OC)c21,3.21 ± 3.6
7,CC(C)CC(=O)N(Cc1ccc(F)cc1)C1CCS(=O)(=O)C1 (centres undefined),-1.59 ± 0.097
8,CC(=O)[C@@]1(O)CC[C@H]2[C@@H]3CCC4=CC(=O)CC[C@]4(C)[C@H]3CC[C@@]21C,-4.67 ± 5.7
9,CC(C)CC(NC(=O)c1cccc(Cl)c1)C(=O)O (centres undefined),-5.1 ± 1.4
10,CNCCc1ccccn1,2.37 ± 0.81
11,CC(C)CCNC(=O)[C@H](CC(C)C)NC(=O)[C@H]1O[C@@H]1C(=O)O,-0.145 ± 0.1
12,CC(=O)OC[C@H]1O[C@@H](Sc2cccc3cccnc23)[C@H](OC(C)=O)[C@@H](OC(C)=O)[C@H]1OC(C)=O,3.41 ± 2.8
13,CCOc1ccc(N2C(=O)CNC2=S)cc1,-2.26 ± 4.6
14,CC1(C)C2CCC1(C)C(OCC[N+](C)(C)CC(=O)OC1CCCCC1)C2 (centres undefined),-6.1 ± 2.5
15,O=C(/C=C/c1ccccc1)NCC1(c2ccccc2)CCOCC1,3.43 ± 3
16,Cc1ncc(CN2CCC(CO)(CCc3ccccc3)CC2)s1,1.42 ± 1.1
17,CC(C)CN(C)Cc1c(C(=O)N2CCc3ccccc3C2)nc2ccc(Cl)cn12,-0.418 ± 4.4
18,COc1ccc(C(=O)N2c3cc4c(cc3C(C)=CC2(C)C)OCO4)cc1,-5.02 ± 1.2
19,COc1ccc(CCn2c(C)cc3c(c2=O)C(c2ccncc2)C(C#N)=C(N)O3)cc1OC (centres undefined),-4.86 ± 1.2
20,NC(N)=NC(N)=Nc1ccc2ccccc2c1,6.98 ± 2.5
21,Cc1cc(C(=O)NC(CC(C)C)C(=O)O)cc(C)c1[N+](=O)[O-] (centres undefined),-4.09 ± 5.2
22,CC(=O)O[C@]1(C(C)=O)CC[C@H]2[C@@H]3C=C(Cl)C4=CC(=O)CC[C@]4(C)[C@H]3CC[C@@]21C,-9.6 ± 7.8

row,Structure (SMILES),CD40L-induced NF-kB luciferase activity
1,CCCNC(=O)NS(=O)(=O)c1ccc(Cl)cc1,-4.66 ± 4
2,Cc1csc(N)n1,0.894 ± 2.2
3,O=C(O)C1CSC(c2ccco2)N1 (centres undefined),-2.59 ± 6.5
4,CC(C)(C)N1NC2(CCCCC2)NC1=S,3.77 ± 0.47
5,COc1ccc(CC(=O)Nc2cccc(C(=O)Nc3ccccc3C(=O)O)c2)cc1OC,-2.42 ± 3.4
6,CC(=O)C1=C(NC(=O)c2ccc(C(F)(F)F)cc2)C[C@@H]2[C@H]1C2(C)C,-3.93 ± 2.1
7,CSCC[C@H](NC(=O)NC1CCCC1)C(=O)O,3.41 ± 6
8,COc1ccc2c(C=O)cn(C)c2c1,-5.51 ± 1.9
9,COC(=O)[C@H]1[C@H]2C[C@@H]3c4[nH]c5cc(OC)ccc5c4CCN3C[C@H]2C[C@@H](OC(=O)c2ccc(N)cc2)[C@@H]1OC,-0.742 ± 0.17
10,CC(C)CC(NC(=O)CNC(=O)C1O[C@@H]2OC(C)(C)O[C@@H]2[C@H]2OC(C)(C)O[C@@H]12)C(=O)O (some centres undefined),1.62 ± 3.9
11,Cc1c(Cc2ccccc2)c(=O)oc2c(CN(C)C)c(O)c(Cl)cc12,-6.41 ± 3.5
12,COc1ccc(-c2cc(=O)oc3cc(OC(C)C(=O)O)ccc23)cc1 (centres undefined),-2.42 ± 4.5
13,OCCN(CCO)c1nc(N2CCCCC2)c2nc(N(CCO)CCO)nc(N3CCCCC3)c2n1,0.567 ± 4.5
14,CC(C)C12CN3CC(C(C)C)(CN(C1)C3c1ccccc1)C2O (centres undefined),-4.59 ± 1.2
15,CCn1c(=N)c(C(=O)NC)cc2c(=O)n3cccc(C)c3nc21,0.825 ± 8.5
16,CC(=O)C1=C(Nc2ccc(C)cc2)CC(C)(O)C(C(C)=O)C1c1ccco1 (centres undefined),-3.88 ± 0.67
17,O=[N+]([O-])c1ccc2cn[nH]c2c1,-4.3 ± 4.4
18,Cc1ccc(CSCC(=O)NCCCN2CCOCC2)cc1,-4.41 ± 6.1
19,COc1ccc(C(=O)NC(=O)NC2(C(Cl)(Cl)Cl)OCCO2)cc1,-0.197 ± 3.6
20,C[C@@H]1C[C@H]2[C@@H]3CCC4=CC(=O)C=C[C@]4(C)[C@@]3(F)[C@@H](O)C[C@]2(C)[C@@]1(O)C(=O)COP(=O)(O)O,-2.27 ± 0.67
21,O=C1N[C@@H](Cc2cnc[nH]2)C(=O)N2CCC[C@@H]12,5.28 ± 4.3
